The IC50 comes from the fitted curve, where viability falls to half of the control; a fit beyond the top or the lowest dose is shown as a bound at that dose. For AUC the same curve is integrated over the 256-fold range of doses and scaled to a fraction; the more sensitive the line, the further below 1. For some assays here: Where the top dose is marked as inferred, it comes from the curve model; the source does not state it. For some assays here: Drugs with an entry number were screened twice under separate entries, and the two screens often disagree.
Columns and labels:
Assay in all cases: Viability of human cancer cell lines after 72 h of drug (GDSC screen)
[1] = compound: O=C(Nc1ccc(OC(F)(F)F)cc1)c1sccc1NCc1ccnc2ccccc12 [OSI-930]; details: top dose 10.24 µM
Description: (§1)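 Human cancer cell lines in 384-well plates, medium with 10% serum, drug for 72 h over a 256-fold dose range (nine 2-fold or five 4-fold steps up to the top dose). Adherent lines were fixed and stained with the nucleic acid dye Syto60, suspension lines read with resazurin; signal relative to control wells, capped at 0 and 100%. One two-parameter sigmoid per drug and line, fitted in a mixed model over all curves with the slope shared within a line.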

[2] = compound: O=S(=O)(O)c1ccc2cc(N=Nc3cc(S(=O)(=O)O)c4cccnc4c3O)ccc2c1 [NSC-87877]; details: top dose 16 µM; top dose inferred
Description: as §1

[3] = compound: Cc1ccc(NC(=O)c2ccc(CN3CCN(C)CC3)cc2)cc1Nc1nc(-c2cccnc2)cs1 [Masitinib]; details: top dose 20 µM
Description: as §1

[4] = compound: CC/C(=C(\c1ccccc1)c1ccc(OCCN(C)C)cc1)c1ccccc1 [Tamoxifen]; details: top dose 5 µM
Description: as §1

[5] = compound: Cc1c(N)nc([C@H](CC(N)=O)NC[C@H](N)C(N)=O)nc1C(=O)N[C@H](C(=O)N[C@H](C)[C@@H](O)[C@H](C)C(=O)N[C@H](C(=O)NCCc1nc(-c2nc(C(=O)NCCC[S+](C)C)cs2)cs1)[C@@H](C)O)[C@@H](OC1OC(CO)C(O)C(O)C1OC1OC(CO)C(O)C(OC(N)=O)C1O)c1cnc[nH]1 [Bleomycin]
Description: as §1

[6] = compound: O=C(Nc1cccc(Nc2ncc(Br)c(NCCc3cnc[nH]3)n2)c1)N1CCCC1 [BX-912]; details: top dose 10.24 µM; top dose inferred
Description: as §1

[7] = compound: O=C(/C=C/c1ccc(CN(CCO)CCc2c[nH]c3ccccc23)cc1)NO [LAQ824]; details: top dose 1.024 µM; top dose inferred
Description: as §1

[8] = compound: COc1cc(N2CCC(C(N)=O)CC2)ccc1Nc1nc(N)c(Cl)c(Nc2ccccc2S(=O)(=O)C(C)C)n1 [HG-5-88-01]; details: top dose 10 µM; top dose inferred
Description: as §1

[9] = compound: CN(NC(=O)CC(=O)NN(C)C(=S)c1ccccc1)C(=S)c1ccccc1 [Elesclomol]; details: top dose 0.2 µM; top dose inferred
Description: as §1

[10] = compound: CCCC(=O)OCc1ccc(OC(=O)/C=C(C)/C=C/C=C(C)/C=C/C2=C(C)CCCC2(C)C)cc1 [VNLG/124]; details: top dose 5.12 µM; top dose inferred
Description: as §1

[11] = top dose 50 µM, screen: GDSC drug entry 1378, top dose inferred
[12] = top dose 64 µM, screen: GDSC drug entry 190

Cell Line | AUC [1] | IC50 [1] [µM] | AUC [2] | IC50 [2] [µM] | AUC [3] | IC50 [3] [µM] | AUC [4] | IC50 [4] [µM] | AUC [5, 11] | IC50 [5, 11] [µM] | AUC [5, 12] | IC50 [5, 12] [µM] | AUC [6] | IC50 [6] [µM] | AUC [7] | IC50 [7] [µM] | AUC [8] | IC50 [8] [µM] | AUC [9] | IC50 [9] [µM] | AUC [10] | IC50 [10] [µM]
BHT-101 (thyroid, adherent) | 0.979 | > 10.2 | 0.985 | > 16 | 0.934 | > 20 | 0.969 | > 5 | 0.351 | 1.19 | 0.405 | 2.18 | 0.951 | > 10.2 | 0.457 | 0.0486 | 0.839 | 7.12 | 0.312 | 0.00364 | 0.966 | > 5.12
BICR10 (head and neck, adherent) | 0.967 | > 10.2 | 0.985 | > 16 | 0.939 | > 20 | 0.96 | > 5 | 0.647 | 8.55 | 0.654 | 11.5 | 0.937 | > 10.2 | 0.709 | 0.275 | 0.962 | > 10 | 0.581 | 0.0216 | 0.983 | > 5.12
BL-41 (Burkitt lymphoma, suspension) | 0.834 | 4.59 | 0.988 | > 16 | 0.873 | 11.9 | 0.991 | > 5 | 0.671 | 8.25 | 0.718 | 13.9 | 0.341 | 0.261 | 0.262 | 0.0164 | 0.994 | > 10 | 0.369 | 0.00598 | 0.974 | > 5.12
BT-483 (breast, adherent) | 0.917 | > 10.2 | 0.978 | > 16 | 0.942 | > 20 | 0.974 | > 5 | 0.925 | > 50 | 0.952 | > 64 | 0.977 | > 10.2 | 0.59 | 0.14 | 0.974 | > 10 | 0.567 | 0.0224 | 0.977 | > 5.12
Becker (glioma, adherent) | 0.96 | > 10.2 | 0.984 | > 16 | 0.976 | > 20 | 0.964 | > 5 | 0.58 | 5.34 | 0.692 | 14.9 | 0.934 | > 10.2 | 0.568 | 0.101 | 0.974 | > 10 | 0.598 | 0.0241 | 0.944 | > 5.12
C2BBe1 (large intestine, adherent) | 0.932 | > 10.2 | 0.943 | > 16 | 0.937 | > 20 | 0.984 | > 5 | 0.852 | 47.3 | 0.807 | 38.3 | 0.972 | > 10.2 | 0.532 | 0.0793 | 0.928 | > 10 | 0.695 | 0.0479 | 0.938 | > 5.12
C32 (melanoma, adherent) | 0.972 | > 10.2 | 0.976 | > 16 | 0.985 | > 20 | 0.984 | > 5 | 0.744 | 16.6 | 0.857 | 57.7 | 0.978 | > 10.2 | 0.869 | > 1.02 | 0.977 | > 10 | 0.647 | 0.0328 | 0.985 | > 5.12
C-4-I (cervix, adherent) | 0.969 | > 10.2 | 0.86 | 15.3 | 0.969 | > 20 | 0.921 | > 5 | 0.183 | 0.314 | 0.381 | 1.83 | 0.969 | > 10.2 | 0.539 | 0.0825 | 0.958 | > 10 | 0.304 | 0.00334 | 0.985 | > 5.12
CAL-12T (non-small cell lung carcinoma, adherent) | 0.849 | 9.09 | 0.981 | > 16 | 0.865 | > 20 | 0.976 | > 5 | 0.605 | 6.31 | 0.198 | 0.444 | 0.896 | > 10.2 | 0.444 | 0.044 | 0.916 | > 10 | 0.788 | 0.0995 | 0.984 | > 5.12
CAL-27 (head and neck, adherent) | 0.974 | > 10.2 | 0.793 | 7.44 | 0.94 | > 20 | 0.926 | > 5 | 0.228 | 0.497 | 0.623 | 8.78 | 0.853 | 8.21 | 0.487 | 0.059 | 0.923 | > 10 | 0.5 | 0.0125 | 0.964 | > 5.12
CAL-33 (head and neck, adherent) | 0.98 | > 10.2 | 0.983 | > 16 | 0.949 | > 20 | 0.985 | > 5 | 0.335 | 1.09 | 0.348 | 1.52 | 0.928 | > 10.2 | 0.562 | 0.0943 | 0.861 | 8.47 | 0.357 | 0.00503 | 0.972 | > 5.12
CAL-62 (thyroid, adherent) | 0.972 | > 10.2 | 0.902 | > 16 | 0.981 | > 20 | 0.964 | > 5 | 0.224 | 0.514 | 0.476 | 3.45 | 0.926 | > 10.2 | 0.449 | 0.0468 | 0.96 | > 10 | 0.613 | 0.0252 | 0.981 | > 5.12
CAL-78 (chondrosarcoma, adherent) | 0.986 | > 10.2 | 0.986 | > 16 | 0.986 | > 20 | 0.981 | > 5 |  |  | 0.977 | > 64 | 0.912 | > 10.2 | 0.901 | > 1.02 | 0.939 | > 10 | 0.656 | 0.0364 | 0.984 | > 5.12
CAS-1 (glioma, adherent) | 0.942 | > 10.2 | 0.975 | > 16 | 0.924 | > 20 | 0.95 | > 5 | 0.865 | > 50 | 0.819 | 55.2 | 0.8 | 7.21 | 0.688 | 0.264 | 0.974 | > 10 | 0.819 | 0.173 | 0.979 | > 5.12
CCK-81 (large intestine, adherent) | 0.969 | > 10.2 | 0.949 | > 16 | 0.883 | 19.3 | 0.989 | > 5 | 0.902 | > 50 | 0.731 | 17.4 | 0.984 | > 10.2 | 0.482 | 0.0573 | 0.966 | > 10 | 0.946 | > 0.2 | 0.975 | > 5.12
CGTH-W-1 (thyroid, adherent) | 0.94 | > 10.2 | 0.973 | > 16 | 0.798 | 9.43 | 0.985 | > 5 | 0.386 | 1.52 | 0.517 | 4.46 | 0.742 | 3.14 | 0.279 | 0.0152 | 0.972 | > 10 | 0.421 | 0.00759 | 0.985 | > 5.12
CHP-212 (neuroblastoma, adherent) | 0.971 | > 10.2 | 0.988 | > 16 | 0.899 | > 20 | 0.986 | > 5 |  |  | 0.111 | 0.252 | 0.704 | 2.28 | 0.186 | 0.0081 | 0.75 | 3.05 | 0.384 | 0.00616 | 0.959 | > 5.12
CHSA0011 (chondrosarcoma, adherent) | 0.973 | > 10.2 | 0.978 | > 16 | 0.961 | > 20 | 0.961 | > 5 | 0.416 | 1.67 | 0.813 | 53.9 | 0.813 | 8.57 | 0.768 | 0.545 | 0.831 | > 10 | 0.738 | 0.0803 | 0.956 | > 5.12
CHSA0108 (chondrosarcoma, adherent) | 0.981 | > 10.2 | 0.984 | > 16 | 0.955 | > 20 | 0.943 | > 5 | 0.584 | 5.51 | 0.861 | > 64 | 0.84 | 8.66 | 0.592 | 0.119 | 0.811 | 6.38 | 0.734 | 0.0657 | 0.983 | > 5.12
CHSA8926 (chondrosarcoma, adherent) | 0.972 | > 10.2 | 0.977 | > 16 | 0.972 | > 20 | 0.969 | > 5 | 0.615 | 7.4 | 0.845 | > 64 | 0.829 | > 10.2 | 0.932 | > 1.02 | 0.799 | 7.34 | 0.454 | 0.00891 | 0.98 | > 5.12
CL-11 (large intestine, adherent) | 0.984 | > 10.2 | 0.983 | > 16 | 0.983 | > 20 | 0.986 | > 5 | 0.813 | 31.3 | 0.959 | > 64 | 0.98 | > 10.2 | 0.817 | 0.67 | 0.882 | > 10 | 0.942 | > 0.2 | 0.987 | > 5.12
COLO-668 (small cell lung carcinoma, adherent) | 0.988 | > 10.2 | 0.965 | > 16 | 0.889 | > 20 | 0.986 | > 5 | 0.931 | > 50 | 0.059 | < 0.25 | 0.918 | > 10.2 | 0.316 | 0.0195 | 0.925 | > 10 | 0.96 | > 0.2 | 0.989 | > 5.12
COLO-684 (endometrium, suspension) | 0.98 | > 10.2 | 0.978 | > 16 | 0.889 | > 20 | 0.981 | > 5 | 0.948 | > 50 | 0.907 | > 64 | 0.845 | 8.78 | 0.459 | 0.0487 | 0.964 | > 10 | 0.524 | 0.0147 | 0.967 | > 5.12
COLO-783 (melanoma, adherent) | 0.991 | > 10.2 | 0.989 | > 16 | 0.988 | > 20 | 0.99 | > 5 | 0.971 | > 50 | 0.862 | 51.2 | 0.991 | > 10.2 | 0.789 | 0.433 | 0.986 | > 10 | 0.821 | 0.11 | 0.986 | > 5.12

Reference: the supplement of paper PMC4967469
